Measurements: the supplement of paper PMC8728848
This is one part of the list.

Key:
Assay in all cases: glycan array binding signal (z-score within array); higher = stronger binding
Conditions in all cases: glycan notation: IUPAC condensed, linker removed
Fuc(b1-3)GlcNAc = target: Fuc(b1-3)GlcNAc
Method in brief: (§1)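 Glycan array binding is given as a within-array Z-score, which can be read as non-binding when negative. The arrays, 3228 of them, came from the Consortium for Functional Glycomics database and were retained only where the protein sequence was available. Z-scores were averaged across arrays of the same protein sequence at different concentrations or buffers and across linkers.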

Gal(a1-2)Gal = target: Gal(a1-2)Gal
Method in brief: as §1

Gal(a1-3)Gal = target: Gal(a1-3)Gal
Method in brief: as §1

Gal(a1-3)Gal(b1-3)Glc = target: Gal(a1-3)Gal(b1-3)Glc
Method in brief: as §1

Gal(a1-3)Gal(b1-3)GlcNAc = target: Gal(a1-3)Gal(b1-3)GlcNAc
Method in brief: as §1

Gal(a1-3)Gal(b1-4)GlcNAc = target: Gal(a1-3)Gal(b1-4)GlcNAc
Method in brief: as §1

[1] = target: Gal(a1-3)Gal(b1-4)[Fuc(a1-3)]GalNAc
Method in brief: as §1

Gal(a1-3)GlcNAc = target: Gal(a1-3)GlcNAc
Method in brief: as §1

[2] = target: Gal(a1-3)[Gal(a1-4)]Gal(b1-4)GlcNAc
Method in brief: as §1

Gal(a1-4)Gal(b1-4)Gal = target: Gal(a1-4)Gal(b1-4)Gal
Method in brief: as §1

Gal(a1-4)Gal(b1-4)GalNAc = target: Gal(a1-4)Gal(b1-4)GalNAc
Method in brief: as §1

Gal(a1-4)GlcNAc = target: Gal(a1-4)GlcNAc
Method in brief: as §1

Gal(a1-6)Glc = target: Gal(a1-6)Glc
Method in brief: as §1

Gal(b1-2)Gal = target: Gal(b1-2)Gal
Method in brief: as §1

Gal(b1-3)Gal = target: Gal(b1-3)Gal
Method in brief: as §1

Gal(b1-3)GalNAc = target: Gal(b1-3)GalNAc
Method in brief: as §1

[3] = target: Gal(b1-3)GalNAc(b1-3)Gal(a1-4)Gal(b1-4)Glc
Method in brief: as §1

[4] = target: Gal(b1-3)GalNAc(b1-3)Gal(b1-4)Glc
Method in brief: as §1

[5] = target: Gal(b1-3)GalNAc(b1-3)Gal(b1-4)GlcNAc
Method in brief: as §1

[6] = target: Gal(b1-3)GalNAc(b1-4)Gal(b1-4)Glc
Method in brief: as §1

[7] = target: Gal(b1-3)GalNAc(b1-4)[Neu5Ac(a2-3)]Gal(b1-4)Glc
Method in brief: as §1

[8] = target: Gal(b1-3)GlcNAc(b1-3)Gal(b1-3)GlcNAc
Method in brief: as §1

[9] = target: Gal(b1-3)[Fuc(a1-4)]GlcNAc
Method in brief: as §1

[10] = target: Gal(b1-3)[Fuc(a1-4)]GlcNAc(b1-3)Gal(b1-3)[Fuc(a1-4)]GlcNAc
Method in brief: as §1

[11] = target: Gal(b1-3)[Fuc(a1-4)]GlcNAc(b1-3)Gal(b1-4)GlcNAc
Method in brief: as §1

[12] = target: Gal(b1-3)[Fuc(a1-4)]GlcNAc(b1-3)Gal(b1-4)[Fuc(a1-3)]GlcNAc
Method in brief: as §1

[13] = target: Gal(b1-3)[GlcNAc(b1-6)]GalNAc
Method in brief: as §1

[14] = target: Gal(b1-3)[GlcNAc(b1-6)]GlcNAc
Method in brief: as §1

[15] = target: Gal(b1-3)[Neu5Ac(a2-6)]GalNAc
Method in brief: as §1

[16] = target: Gal(b1-3)[Neu5Ac(a2-6)]GlcNAc
Method in brief: as §1

[17] = target: Gal(b1-3)[Neu5Ac(a2-6)]GlcNAc(a1-4)Gal(b1-4)Glc
Method in brief: as §1

[18] = target: Gal(b1-3)[Neu5Ac(b2-6)]GlcNAc
Method in brief: as §1

[19] = target: Gal(b1-4)GalNAc(a1-3)[Fuc(a1-2)]Gal(b1-4)GlcNAc
Method in brief: as §1

[20] = target: Gal(b1-4)GalNAc(b1-3)[Fuc(a1-2)]Gal(b1-4)GlcNAc
Method in brief: as §1

Gal(b1-4)Glc = target: Gal(b1-4)Glc
Method in brief: as §1

Gal(b1-4)Glc6S = target: Gal(b1-4)Glc6S
Method in brief: as §1

Gal(b1-4)GlcNAc = target: Gal(b1-4)GlcNAc
Method in brief: as §1

[21] = target: Gal(b1-4)GlcNAc(b1-2)Man(a1-3)[Gal(b1-4)GlcNAc(b1-2)Man(a1-6)]Man(b1-4)GlcNAc(b1-4)GlcNAc
Method in brief: as §1

[22] = target: Gal(b1-4)GlcNAc(b1-3)Gal(b1-3)GlcNAc
Method in brief: as §1

[23] = target: Gal(b1-4)GlcNAc(b1-3)Gal(b1-4)Glc
Method in brief: as §1

[24] = target: Gal(b1-4)GlcNAc(b1-3)Gal(b1-4)GlcNAc
Method in brief: as §1

[25] = target: Gal(b1-4)GlcNAc(b1-3)Gal(b1-4)GlcNAc(b1-3)Gal(b1-4)GlcNAc
Method in brief: as §1

[26] = target: Gal(b1-4)GlcNAc(b1-3)Gal(b1-4)[Fuc(a1-3)]GlcNAc(b1-3)Gal(b1-4)[Fuc(a1-3)]GlcNAc
Method in brief: as §1

[27] = target: Gal(b1-4)GlcNAc(b1-3)GalNAc
Method in brief: as §1

[28] = target: Gal(b1-4)GlcNAc(b1-3)[Gal(b1-4)GlcNAc(b1-6)]GalNAc
Method in brief: as §1

B1: Epa1 (Candida glabrata), Q6FUW5_CANGA (protein)
chain: MILNPALFLNKCVCIYTTLILLLLTNGGYATSSNDISLASKDPTTFPLGCSPDITTPKKGLSMELYSYDFRKKGSYPCWDAAYLDPNYPRTGYKSHRLLAKVDGVTGNINFYYHATKGCTPQLGHLPASYNYPKPLTMTNFTMLLYGYFRPKVTGFHTFTISADDLLFVNFGAGNAFDCCRRDSSADHFGNYQAYAIWGSKTAKDELTVHLDAGVYYPIRLFYNNREYDGALSFTFKTESNENTVSDFSEYFFSLDDTEEGCPGLISYDSSCASVKTSKIIGIDYHTETPNENLVPITKTIYHLGIPCTGTTTTPLCGSGFYDPLANKCVTINTSSTSSVTKTTSHTTSKEVSFHSSISSQKTLIPKSIPSPYGPIKSQSIPTEMETSSEISSSEYAFSDVISTPSHSPYTKKHSSLNSSSYTSTVIHSLTSYSISQGIFSTSLSEQNITSKSSTDKFSTATSMSNSITQSSIIISQSSTNNENYTTTSMHTSSDKISTETLNNSISTTTSILFSNSSTILKNNTTIISSDKDTHYHPVNPTIVCSTNKTEIICASITQPSISNSNNHWSSSVLRFNSTTVRSTLPSSAGSNETSINVPFSSSTESNASTSSTSTSNSKTVRSTLPSSAGSNETSINVPFSSSTESNTSTSSTSTSNSKTVRSTLPSSAGSNETSINVPFSSSTESNASTSSTSTSNSKTVRSTPFSSAGIIMTSLSQRNNKSASSYASSNSKCYNTADSCRKVHSTPSYLLTSSYTSEGVDYDCSLVSTKLKINDTNCLNNKHTTKSCLKTSVTTTIPTLEIKTARKSSSNTIGLHSYPTSSPNKSISSAPIIGYISSFKTIKTASPSYQTSDLTTITTITSLNNPGSTAVENTHESNDKSRKTSSNDISSKHSVIKETKDAVESSNKSHQTNTLKCSSIIIASSSHNSYESLGGTTLTLTLSKVYSPQNNDTLPFLEISEVNPSRTVLPESSKMMQYLTSTEERNKTARNTIATNIVSISTFHFEGEGNAIRMGYTQLLLMLIGIIVMNIGT
Q: With B1 as the binder, how does the “glycan array binding signal (z-score)” value (Fuc(b1-3)GlcNAc) read?
A: -0.555

Q: What about the “glycan array binding signal (z-score)” value (Gal(a1-2)Gal) of the same binder?
A: 0.111

Q: What about the “glycan array binding signal (z-score)” value (Gal(a1-3)Gal) of the same binder?
A: 0.75

Q: What about the “glycan array binding signal (z-score)” value (Gal(a1-3)Gal(b1-3)Glc) of the same binder?
A: -0.55

Q: And the “glycan array binding signal (z-score)” value (Gal(a1-3)Gal(b1-3)GlcNAc)?
A: 0.421

Q: And the “glycan array binding signal (z-score)” value (Gal(a1-3)Gal(b1-4)GlcNAc)?
A: 1.42

Q: What about the “glycan array binding signal (z-score)” value [1] of the same binder?
A: 0.265

Q: What about the “glycan array binding signal (z-score)” value (Gal(a1-3)GlcNAc) of the same binder?
A: 0.208

Q: What about the “glycan array binding signal (z-score)” value [2] of the same binder?
A: 0.017

Q: And the “glycan array binding signal (z-score)” value (Gal(a1-4)Gal(b1-4)Gal)?
A: 0.374

Q: What about the “glycan array binding signal (z-score)” value (Gal(a1-4)Gal(b1-4)GalNAc) of the same binder?
A: 1.29

Q: And the “glycan array binding signal (z-score)” value (Gal(a1-4)GlcNAc)?
A: 2.1

Q: And the “glycan array binding signal (z-score)” value (Gal(a1-6)Glc)?
A: 0.344

Q: And the “glycan array binding signal (z-score)” value (Gal(b1-2)Gal)?
A: 0.97

Q: And the “glycan array binding signal (z-score)” value (Gal(b1-3)Gal)?
A: 2.4

Q: And the “glycan array binding signal (z-score)” value (Gal(b1-3)GalNAc)?
A: 1.77

Q: And the “glycan array binding signal (z-score)” value [3]?
A: 2.31

Q: And the “glycan array binding signal (z-score)” value [4]?
A: 1.31

Q: And the “glycan array binding signal (z-score)” value [5]?
A: 1.4

Q: What about the “glycan array binding signal (z-score)” value [6] of the same binder?
A: 2.02

Q: What about the “glycan array binding signal (z-score)” value [7] of the same binder?
A: 2.27

Q: What about the “glycan array binding signal (z-score)” value [8] of the same binder?
A: -0.151

Q: And the “glycan array binding signal (z-score)” value [9]?
A: -0.332

Q: What about the “glycan array binding signal (z-score)” value [10] of the same binder?
A: -0.551

Q: And the “glycan array binding signal (z-score)” value [11]?
A: 1.75

Q: What about the “glycan array binding signal (z-score)” value [12] of the same binder?
A: -0.545

Q: What about the “glycan array binding signal (z-score)” value [13] of the same binder?
A: 2.14

Q: What about the “glycan array binding signal (z-score)” value [14] of the same binder?
A: 1.72

Q: What about the “glycan array binding signal (z-score)” value [15] of the same binder?
A: 1.1

Q: What about the “glycan array binding signal (z-score)” value [16] of the same binder?
A: 2.02

Q: And the “glycan array binding signal (z-score)” value [17]?
A: 1.84

Q: And the “glycan array binding signal (z-score)” value [18]?
A: 0.26

Q: What about the “glycan array binding signal (z-score)” value [19] of the same binder?
A: 1.99

Q: What about the “glycan array binding signal (z-score)” value [20] of the same binder?
A: 2.42

Q: And the “glycan array binding signal (z-score)” value (Gal(b1-4)Glc)?
A: 2.22

Q: And the “glycan array binding signal (z-score)” value (Gal(b1-4)Glc6S)?
A: 2.26

Q: And the “glycan array binding signal (z-score)” value (Gal(b1-4)GlcNAc)?
A: 1.6

Q: What about the “glycan array binding signal (z-score)” value [21] of the same binder?
A: 1.98

Q: What about the “glycan array binding signal (z-score)” value [22] of the same binder?
A: 1.03

Q: And the “glycan array binding signal (z-score)” value [23]?
A: 1.98

Q: And the “glycan array binding signal (z-score)” value [24]?
A: 2.02

Q: And the “glycan array binding signal (z-score)” value [25]?
A: 1.8

Q: And the “glycan array binding signal (z-score)” value [26]?
A: 2.04

Q: And the “glycan array binding signal (z-score)” value [27]?
A: 2.41

Q: What about the “glycan array binding signal (z-score)” value [28] of the same binder?
A: 2.16
